Consider 31 molecules from PubChem BioAssay AID1745853 (National Center for Advancing Translational Sciences (NCATS), 2022).

Common to all, as to assay: Primary Screen for Target Class Profiling of Small Molecule Inhibitors of Methyltransferases
Experiment [1] has as its target Glycine N-methyltransferase (Homo sapiens) (UniProt Q14749). Particulars: purified enzyme, MTase-Glo SAH luminescence; measured here: GNMT inhibition; at 40 µM; stronger effect = lower value. A digest of the protocol: (§1)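 Each enzyme was reacted with SAM and its substrate, with compounds tested once at 40 uM; SAH formed was read by MTase-Glo luminescence.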
In experiment [2] the target is Guanidinoacetate N-methyltransferase (Homo sapiens) (UniProt Q14353). Conditions: purified enzyme, MTase-Glo SAH luminescence; measured here: GAMT inhibition; at 40 µM; stronger effect = lower value. In outline:
as §1

Experiment [3] has as its target Histamine N-methyltransferase (Homo sapiens) (UniProt P50135). Conditions: purified enzyme, MTase-Glo SAH luminescence; measured here: HNMT inhibition; at 40 µM; stronger effect = lower value. In outline:
as §1

Experiment [4] concerns the target Nicotinamide N-methyltransferase (Homo sapiens) (UniProt P40261). Conditions: purified enzyme, MTase-Glo SAH luminescence; measured here: NNMT inhibition; at 40 µM; stronger effect = lower value. In outline: as §1
The target in experiment [5] is Phenylethanolamine N-methyltransferase (Homo sapiens) (UniProt P11086). Particulars: purified enzyme, MTase-Glo SAH luminescence; measured here: PNMT inhibition; at 40 µM; stronger effect = lower value. A digest of the protocol: as §1

This is one part of the list. The main result of the screen is listed elsewhere. These columns were measured beside it and carry no call.
On the % scale 0 is the no-effect control and ±100 the full control effect.

Take `Fc1ccc2[nH]ccc2c1-c1nc(N2CCOCC2)c2sc(CN3CCN(CC4CC4)CC3)cc2n1`: the activity change, negative = inhibition in experiment [1] was -1.66%; in experiment [2] it was 4.53%; in experiment [3], -49%; in experiment [4] it was -68.8%; in experiment [5] it was -9.28%.
The matching figures for `CN(C)c1ccc(CNC(=O)Cn2c(=O)oc3cc(S(=O)(=O)NC4CCCC4)ccc32)cc1`: 2.17%, 1.74%, 10.2%, 11.8% and 0.385%.
Taken in the same sequence, the figures for `C=CCS(=O)(=O)N1CCC2(CCCN(CCCc3ccccc3)C2=O)C1` (stereo not drawn) were -4.4%, -12.3%, -4.19%, -17.9% and -10.9%.
Take `Cc1ccc(N(C)S(=O)(=O)c2ccc3c(c2)n(C)c(=O)n3C)cc1`: the activity change, negative = inhibition was -6.01% in experiment [1]; 0% in experiment [2]; -5.03% in experiment [3]; -34.3% in experiment [4]; -5.01% in experiment [5].
Take `CC(C)(NS(=O)(=O)c1ccc(Oc2ccc(F)cc2)cc1)C(=O)NO`: the activity change, negative = inhibition in experiment [1] was -5.58%; in experiment [2], 3.94%; in experiment [3], 1.19%; in experiment [4], -8.04%; in experiment [5] it was 2.95%.
In the case of `CC(CN1c2ccccc2Sc2ccccc21)N(C)C` (stereo not drawn), the activity change, negative = inhibition in experiment [1] is -2.37%; in experiment [2] it was 13.1%; in experiment [3], -10.1%; in experiment [4], -4.49%; in experiment [5], 4.79%.
Consider `CC1CCC(NS(=O)(=O)c2ccc3c(c2)n(C)c(=O)n3C)CC1` (stereo not drawn), for which the activity change, negative = inhibition in experiment [1] is 14.6%; in experiment [2] it was 0%; in experiment [3], 8.87%; in experiment [4], 1%; in experiment [5], 5.54%.
Consider `COC[C@H]1CCCN1[C@@H]1[C@H](O)[C@H](CO)O[C@@H]1CNCc1ccc(F)cc1`, for which the activity change, negative = inhibition is -8.78% in experiment [1]; -6.41% in experiment [2]; -4.52% in experiment [3]; -9% in experiment [4]; -0.697% in experiment [5].
The matching figures for `CNC(=O)c1ccccc1Sc1ccc2c(/C=C/c3ccccn3)n[nH]c2c1`: -26.9%, -8.15%, -6.55%, -27.1% and -15%.
With `Cc1ccc(NC(=O)Nc2cc(C(F)(F)F)ccc2F)cc1Nc1ccc2c(c1)NC(=O)/C2=C\c1ccc[nH]1`, the activity change, negative = inhibition is -17.5% in experiment [1]; -28.7% in experiment [2]; -14.8% in experiment [3]; -29.6% in experiment [4]; -15.4% in experiment [5].
For `CN(C)[C@@H]1CCc2[nH]c3ccc(NC(=O)c4ccc(F)cc4)cc3c2C1`, the activity change, negative = inhibition in experiment [1] is 1.67%; in experiment [2], -0.609%; in experiment [3], -55.3%; in experiment [4], -13%; in experiment [5], -7.74%.
`Cc1ccc(Cn2c(=O)c3ccccc3n3c(SCC(=O)Nc4cccc(Cl)c4)nnc23)cc1`: the activity change, negative = inhibition in experiment [1] turned out to be 2.66%; in experiment [2], 4.92%; in experiment [3], 8.59%; in experiment [4], 0.941%; in experiment [5], 4.83%.
With `CC1CC(C)CN(S(=O)(=O)c2ccc3c(c2)oc(=O)n3CC(=O)NCc2cccs2)C1` (stereo not drawn), the activity change, negative = inhibition in experiment [1] is -10.7%; in experiment [2], -2.48%; in experiment [3] it was -7.49%; in experiment [4], -8.74%; in experiment [5], -11.8%.
The matching figures for `Cc1nc(N(C)C2CCCCC2)ncc1C(C)NC(=O)C1(CO)CC1` (stereo not drawn): -4.05%, -6.09%, -3.54%, -7.17% and -4.77%.
In the case of `CNC(=O)[C@@H]1CN(Cc2ccncc2)C[C@H]1COC`, the activity change, negative = inhibition in experiment [1] was -0.465%; in experiment [2], 1.56%; in experiment [3], 0.938%; in experiment [4], 0.686%; in experiment [5], -0.554%.
Turning to `Fc1ccc(C2Nc3ccc(Cl)cc3C3C=CCC32)cc1` (stereo not drawn), the activity change, negative = inhibition in experiment [1] is -10.8%; in experiment [2] it was -2.69%; in experiment [3] it was -10.1%; in experiment [4], -13.1%; in experiment [5], -12.3%.
`O=C1CCCN1c1ccc(CN2CC(=O)N(Cc3ccccc3)c3ccccc3S2(=O)=O)cc1`: the activity change, negative = inhibition in experiment [1] is -10.4%; in experiment [2], 3.27%; in experiment [3] it was 9.2%; in experiment [4], 2.79%; in experiment [5] it was -0.185%.
Take `CC(C)c1nccn1CCCNC(=O)c1ccc(-c2cccnc2)nc1`: the activity change, negative = inhibition was -1.28% in experiment [1]; -1.63% in experiment [2]; -48.8% in experiment [3]; 0.367% in experiment [4]; -4.04% in experiment [5].
`CN(C)c1nc2c(Br)c(Br)c(Br)c(Br)c2[nH]1`: the activity change, negative = inhibition in experiment [2] is 7.91%; in experiment [4] it was -7.29%; in experiment [5], 6.6%.
In the case of `CC(C)Cn1c(=O)c2ccc(C(=O)NC(C)C)cc2n2c(=O)n(Cc3c(F)cccc3Cl)nc12`, the activity change, negative = inhibition turned out to be 1.58% in experiment [1]; 0% in experiment [2]; 0.833% in experiment [3]; 2.05% in experiment [4]; 1.49% in experiment [5].
`C=CC1(C)CC(OC(=O)C(=C)C(O)COC(C)=O)C(C(=C)C(=O)OC)C(O)C1C(=C)CO` (stereo not drawn): the activity change, negative = inhibition was 0% in experiment [1]; 8.46% in experiment [2]; 7.8% in experiment [3]; -2.13% in experiment [4]; 7.05% in experiment [5].
For `O=C(CN1C2=NCCN2c2ccccc21)c1ccc(-c2ccccc2)cc1`, the activity change, negative = inhibition in experiment [1] was -7.13%; in experiment [2], -0.852%; in experiment [3], -43.9%; in experiment [4] it was -34.7%; in experiment [5] it was -20.6%.
Consider `CCOC(=O)CNC(=O)N1Cc2c(sc3c2CCCC3)-n2cccc2C1c1cccc(C)c1` (stereo not drawn), for which the activity change, negative = inhibition in experiment [1] was -3.28%; in experiment [2], 2.56%; in experiment [3] it was -3.59%; in experiment [4], -8.99%; in experiment [5] it was -0.929%.
Consider `CNC(=O)c1cc(C)nc2onc(C3CCCN([S+](=O)([O-])c4ccc(C)cc4)C3)c12` (stereo not drawn), for which the activity change, negative = inhibition in experiment [1] is -25.5%; in experiment [2] it was -4.61%; in experiment [3], -2.38%; in experiment [4] it was -16.6%; in experiment [5] it was 5.36%.
Consider `CCCNC(=O)N[C@@H]1C[C@H](COc2cccc(C)n2)[C@@H](O)[C@H]1O`, for which the activity change, negative = inhibition in experiment [1] is -1.72%; in experiment [2], -0.286%; in experiment [3] it was -8.01%; in experiment [4], -2.55%; in experiment [5] it was -3.36%.
Taken in the same sequence, the figures for `CCCCN1C(=O)c2cc(C(=O)NCc3ccccc3C)nn2CC1(C)C(=O)NC1CCCC1` (stereo not drawn) were -1.78%, 2.61%, -6.58%, -3.43% and -1.77%.
The matching figures for `Cc1ccc(NC(=O)N2CCn3cccc3C2C(C)C)cc1` (stereo not drawn): 0.048%, 2.57%, -7.21%, -5.79% and -4.49%.
`CCCn1cc(-c2ccncc2)cc1C(=O)NCc1ccc(C)o1`: the activity change, negative = inhibition in experiment [1] was -14.6%; in experiment [2], -10.1%; in experiment [3] it was -18.8%; in experiment [4], -19.1%; in experiment [5], -10.1%.
With `O=c1c2ccccc2n2c(=O)n(Cc3cccc(F)c3)nc2n1Cc1ccc(F)cc1`, the activity change, negative = inhibition in experiment [1] was found to be 8.96%; in experiment [2] it was 1.34%; in experiment [3], 12.4%; in experiment [4] it was 2.84%; in experiment [5], 6.13%.
In the case of `CCOC(=O)c1cc2n(n1)CC(C)(C(=O)NCc1ccccc1OC)N(c1ccc(C)c(Cl)c1)C2=O` (stereo not drawn), the activity change, negative = inhibition in experiment [1] is -2.38%; in experiment [2] it was 2.54%; in experiment [3], 0.222%; in experiment [4] it was -8.42%; in experiment [5] it was -1.41%.
For the molecule `Cc1ccc(CN2CCCOCCNC(=O)[C@@H]3CCCC[C@@H]32)o1`, the activity change, negative = inhibition is -11.1% in experiment [1]; -8.54% in experiment [2]; -1.31% in experiment [3]; -9.96% in experiment [4]; -1.02% in experiment [5].
